Source: PubChem BioAssay AID1345082 (National Center for Advancing Translational Sciences (NCATS), 2018)
Where “and” joins values, the source holds several entries; their conditions need not be identical. Equal entries are not always repeated. The whole screen tested about 94,000 compounds, of which about 4,000 (4.3%) were called active. The shares of active, inactive and inconclusive entries below differ from those in the screen. The call rests on the fitted dose curve; in most records, active means well fitted inhibition curve with a large enough effect; inconclusive means small, poorly fitted or top-dose-only effect; inactive means no such curve, though single readings can be large or run the other way. A potency beside an inconclusive call is a rough fit, not a confirmed value.

Experiment: Cytotoxic Profiling in NIH 3T3 Cell Line of Diverse Libraries Using Quantitative High-Throughput Screening; further: nearly all actives have a fitted effect of over 55% in size
Settings: NIH 3T3 viability, CellTiter-Glo ATP luminescence, 48-72 h; activity change, negative = cytotoxicity: at 96.7 µM (top of the series); series mostly up to 96.7 µM
Summary of the method: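 Viability of NIH 3T3 cells after 48 or 72 hr compound treatment at 37 °C was assessed by CellTiter-Glo, with luminescence imaged following a 10 min room-temperature step.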
On the % scale 0 is the no-effect control and ±100 the full control effect; potency means the concentration at half of the fitted maximal effect; tags describe the fitted curve by direction and shape.

For `Cc1ccc(C2=NC3(CCN(C(=O)c4sccc4C)CC3)ON2)cc1`, which “activity change, negative = cytotoxicity” value is on record?
The value was inactive: -5.04%.

Which “activity change, negative = cytotoxicity” value does the source give for `CC(C)N1C(=O)[C@@H]2[C@@H](CCN2C(=O)CSCC(=O)O)N(Cc2cccc(F)c2)C1=O` here?
The value was inactive: -26.6% [at 174 µM].

Which Potency does the source give for `Cc1ccc(Nc2ccnc(N3CCC(C(=O)NC4CC4)CC3)n2)cc1` here?
The Potency was active: 35.5 µM.

For `CC(C)CCNC(=O)C1c2ccccc2C(=O)N(Cc2ccccc2)C12CCCC2` (stereo unspecified), which Potency is on record?
The Potency was inconclusive: 44.7 µM [inhibitor, partial curve, poor fit].

For `COCCOc1ccc(-c2noc([C@@H]3CCCN3Cc3c[nH]c4ccccc34)n2)cn1`, which “activity change, negative = cytotoxicity” value is on record?
The value was inactive: -22.9% [at 138 µM].

With `Cc1ccc(C(=O)N2CCC3(CC2)c2[nH]c4ccccc4c2CCN3C)cn1` as the compound, how does the “activity change, negative = cytotoxicity” value read?
The value was inactive: -25.5%.

For `Cc1nn2c(c1-c1ccccc1C(C)C)N(C(=O)c1cnccn1)CCC2`, which Potency is on record?
The Potency was inconclusive: 89.1 µM [inhibitor, partial curve].

With `O=C(Cc1ccccc1)NCCC1CCN(C(=O)Nc2ccccc2)CC1` as the compound, how does the “activity change, negative = cytotoxicity” value read?
The value was inactive: 3.96%.

For `COc1ccc(-c2noc(CC3CCN(C(=O)CC4CCCCC4)CC3)n2)cc1`, which Potency is on record?
Its Potency is inconclusive: 31.6 µM [inhibitor, partial curve, poor fit].

With `c1cc2nnc(C3CCC3)n2nc1NCC1CCCO1` (stereo unspecified) as the compound, how does the Potency read?
Its Potency is inconclusive: 70.8 µM [inhibitor, single point].

Which Potency does the source give for `COc1ccccc1CC(=O)N1CCCN(CCc2ccccc2)c2ccccc21` here?
Its Potency is inconclusive: 35.5 µM [inhibitor, partial curve, poor fit].

Which Potency does the source give for `COc1ccc(C(=O)N2CCN(c3nccc(Nc4ccccc4OC)n3)CC2)cc1` here?
Its Potency is inconclusive: 50.1 µM [inhibitor, partial curve, poor fit].

With `CCNc1cc(N2CCC(CCC(=O)NCCN3CCCCCC3)CC2)ncn1` as the compound, how does the “activity change, negative = cytotoxicity” value read?
The value was inactive: -17.8%.

Which Potency does the source give for `CCC(C)NC(=O)c1cc(-c2ccc(C(F)(F)F)cc2)nc2c1cnn2C` (stereo unspecified) here?
Its Potency is inconclusive: 50.1 µM [inhibitor, partial curve, poor fit].

Which Potency does the source give for `Cc1ccc(-n2c(C3CCN(C(=O)Cc4c(F)cccc4Cl)CC3)n[nH]c2=O)cc1` here?
Its Potency is inconclusive: 44.7 µM [inhibitor, partial curve, poor fit].

For `COc1ccc(CC(=O)N2CCC3(CC2)CN(C(C)=O)CC3CO)cc1OC` (stereo unspecified), which “activity change, negative = cytotoxicity” value is on record?
Its value is inactive: -4.14%.

Which “activity change, negative = cytotoxicity” value does the source give for `Cc1ccccc1C(=O)N1CCC[C@H]1c1nc(-c2ccc(F)cc2)no1` here?
The value was inactive: -19%.

For `Oc1ccccc1CN1CCNc2cc(-c3ccccc3)ncc2C1`, which Potency is on record?
Its Potency is active: 79.4 µM.

For `CC(=O)NC1(C)CCCN(c2ccc(Oc3ccccc3)cc2)C1` (stereo unspecified), which Potency is on record?
Its Potency is inconclusive: 56.2 µM [inhibitor, partial curve, poor fit].

Which Potency does the source give for `Oc1ccc(-c2nc(C3CC3)nc3c2CCN(Cc2ccccc2)CC3)cc1` here?
Its Potency is inconclusive: 50.1 µM [inhibitor, partial curve, poor fit].

With `O=C(c1ccc(Cl)nc1)N1CCCC(C(=O)N2CCCC2c2nc3ccncc3[nH]2)C1` (stereo unspecified) as the compound, how does the “activity change, negative = cytotoxicity” value read?
Its value is inactive: -18.1%.

With `Cc1ccc(-c2cc3c(=O)n(CCNC(=O)c4ccc(C)s4)ccn3n2)c(C)c1` as the compound, how does the Potency read?
The Potency was inconclusive: 39.8 µM [inhibitor, partial curve].

Which “activity change, negative = cytotoxicity” value does the source give for `N#Cc1cccc(-c2cn3c(n2)N(C(=O)CC2CCCC2)CCC3)c1` here?
Its value is inactive: -21.7%.

With `Cc1cccc(-c2cccc(CN3CCC(N[S+](=O)([O-])c4c(C)noc4C)CC3)c2)c1` as the compound, how does the Potency read?
Its Potency is active: 31.6 µM.

With `CC(c1cccs1)N(C)C(=O)c1cccc(Cl)c1` (stereo unspecified) as the compound, how does the “activity change, negative = cytotoxicity” value read?
The value was inactive: -20.7% [at 138 µM].

With `FC(F)(F)c1cccc(C2=NOC3(CCCN(Cc4cccs4)C3)C2)c1` (stereo unspecified) as the compound, how does the Potency read?
The Potency was active: 35.5 µM.

Which Potency does the source give for `CN(Cc1ccccc1)C(=O)C[C@@H]1CCNC[C@@H]1Cc1cc(COc2ccccc2)on1` here?
The Potency was active: 28.2 µM.

Which Potency does the source give for `O=C(Nc1cc(F)c(F)c(F)c1)N1CCC(OC2CCN(Cc3ccccc3)CC2)CC1` here?
The Potency was active: 35.5 µM.

For `COc1ccc(-c2cc(N3CCC(NC(=O)c4ccc(Cl)s4)CC3)n[nH]2)cc1`, which Potency is on record?
The Potency was inconclusive: 20 µM [inhibitor, full curve, poor fit].

Which “activity change, negative = cytotoxicity” value does the source give for `O=C(Nc1ccc(F)cc1F)N1C[C@@H](F)[C@@H](OCc2nc3ccccc3[nH]2)C1` here?
The value was inactive: -3.27% [at 138 µM].

For `CC(=O)N1CCN(C(=O)C2(C)CCc3cnc(Nc4ccccc4)nc32)CC1` (stereo unspecified), which Potency is on record?
Its Potency is inconclusive: 79.4 µM [inhibitor, partial curve].

For `COc1ccccc1-c1cc2c(ccn2C)c(C(=O)NCCc2cnc[nH]2)n1`, which Potency is on record?
The Potency was inconclusive: 89.1 µM [inhibitor, partial curve, poor fit].

With `C[C@H]1[C@@H]2[C@@H](O)C([C@H](C)C(=O)N(C)CCC#N)CC[C@@]2(C)CC[C@@H]1NS(C)(=O)=O` (stereo partly specified) as the compound, how does the Potency read?
Its Potency is inconclusive: 15.8 µM [inhibitor, full curve, poor fit].

With `CCn1c(C)c(CN2CCc3nc(N(C)C)[nH]c(=O)c3CC2)c2ccccc21` as the compound, how does the Potency read?
The Potency was inconclusive: 44.7 µM [inhibitor, partial curve, poor fit].

For `O=C(C1CC1)N1CCC(Cc2noc(-c3ccccc3)n2)C1` (stereo unspecified), which Potency is on record?
Its Potency is inconclusive: 44.7 µM [inhibitor, partial curve, poor fit].

With `COC(=O)CC(NC(=O)Nc1cccn2nc(C)nc12)c1ccccc1` (stereo unspecified) as the compound, how does the “activity change, negative = cytotoxicity” value read?
The value was inactive: -11.4%.

Which Potency does the source give for `CC(C)CNC(=O)c1cc2n(n1)CC(c1ccc3c(c1)OCO3)OC2` (stereo unspecified) here?
The Potency was active: 39.8 µM.

Which Potency does the source give for `CN1CC(=O)N(c2ccccc2F)Cc2c(NCCc3ccccc3)ncnc21` here?
Its Potency is inconclusive: 39.8 µM [inhibitor, partial curve].

With `CCN(CC)CC[C@H]1CN(C(=O)C2CCC2)CC[C@H]1CC(=O)O` as the compound, how does the Potency read?
The Potency was inconclusive: 126 µM [inhibitor, single point].

With `O=C(c1cc2n(n1)CC(c1ccc(Cl)cc1)OC2)N1CCc2ccccc2C1` (stereo unspecified) as the compound, how does the “activity change, negative = cytotoxicity” value read?
The value was inactive: -8.89%.

Which Potency does the source give for `COc1cccc(N2CCN(C(=O)c3cc4c(s3)CN(C3CCCC3)C4)CC2)c1` here?
The Potency was inconclusive: 70.8 µM [inhibitor, single point].

For `CS(=O)(=O)c1ccc(CN2CCC3(CCNCC3)C2)cc1`, which “activity change, negative = cytotoxicity” value is on record?
The value was inactive: -18%.

For `C=CCOc1c(OC)ccc2c1CN(Cc1ccccc1)C(=O)CCN2CC(O)Cc1ccccc1` (stereo unspecified), which Potency is on record?
The Potency was inconclusive: 44.7 µM [inhibitor, partial curve, poor fit].

With `O=C(CCCn1nnnc1CN1CCOCC1)N1CCCCC1CCc1ccccn1` (stereo unspecified) as the compound, how does the “activity change, negative = cytotoxicity” value read?
The value was inactive: -16.9%.

Which Potency does the source give for `O=C(C1CCOCC1)N1CCOC[C@H](Oc2ccc(C(F)(F)F)cc2)C1` here?
The Potency was inconclusive: 100 µM [inhibitor, partial curve, poor fit].

With `COc1ccccc1CC(=O)N1CCC(C2CCN(S(C)(=O)=O)CC2)C1` (stereo unspecified) as the compound, how does the “activity change, negative = cytotoxicity” value read?
The value was inactive: -4.66%.

With `COc1cc(C(=O)N2C[C@@H](C)[C@@](C)(O)C2)ccn1` as the compound, how does the “activity change, negative = cytotoxicity” value read?
The value was inactive: -1.88%.

Which Potency does the source give for `Cc1nn(-c2ccccc2)c(Oc2ccccc2F)c1CCC(=O)N1CCSCC1` here?
The Potency was inconclusive: 50.1 µM [inhibitor, partial curve, poor fit].

For `CC1=NOC2(CCN(C(=O)c3ccccn3)C2)C1` (stereo unspecified), which “activity change, negative = cytotoxicity” value is on record?
The value was inactive: -14.3% [at 138 µM].

Which Potency does the source give for `CC(=O)Nc1cccc(-c2ccc3c(n2)CN(Cc2ccccc2)C(=O)CO3)c1` here?
Its Potency is inconclusive: 50.1 µM [inhibitor, partial curve, poor fit].

Which “activity change, negative = cytotoxicity” value does the source give for `COc1ncccc1-c1nc2cc(C(=O)Nc3ccc(F)cc3)ccc2o1` here?
Its value is inactive: -12.6%.

For `COc1ccc(-c2ccc(C(=O)NC3CC3)c(Cl)c2)nn1`, which Potency is on record?
Its Potency is inconclusive: 89.1 µM [inhibitor, partial curve, poor fit].

With `O=C(Cc1ccc(F)cc1)N1CCN(c2nccc(Nc3ccccc3F)n2)CC1` as the compound, how does the Potency read?
The Potency was active: 17.8 µM.

For `NCC(=O)N1Cc2ccccc2CC2(CCCN(CC3CCCC3)C2)C1` (stereo unspecified), which Potency is on record?
Its Potency is inconclusive: 79.4 µM [inhibitor, single point].

For `CC1=C[C@@H](CNS(=O)(=O)Cc2ccccc2)[C@H](C(C)C)C[C@H]1CC(=O)NCc1ccccn1`, which Potency is on record?
Its Potency is inconclusive: 50.1 µM [inhibitor, partial curve, poor fit].

For `Cn1ncc2c(NCc3noc(-c4cccs4)n3)nc(C(C)(C)C)nc21`, which Potency is on record?
The Potency was inconclusive: 50.1 µM [inhibitor, partial curve, poor fit].

With `C#CCNC(=O)C1CCN(c2nccc(Nc3ccccc3OC)n2)CC1` as the compound, how does the Potency read?
The Potency was inconclusive: 56.2 µM [inhibitor, partial curve, poor fit].

For `Cc1ccc([S+](=O)([O-])N2CCC3(C2)C(=O)N(CCc2ccccc2)c2ccccc23)cc1` (stereo unspecified), which Potency is on record?
The Potency was inconclusive: 35.5 µM [inhibitor, partial curve] and inconclusive: 44.7 µM [inhibitor, partial curve].

Which Potency does the source give for `Cc1cc(C)c(CNC(=O)c2nc(-c3ccccc3)cc3[nH]ccc23)c(=O)[nH]1` here?
The Potency was inconclusive: 44.7 µM [inhibitor, full curve].

For `COc1ccc(CN2CCC3(C2)C(=NC2CCCC2)NC(=O)N3c2cccnc2)cc1` (stereo unspecified), which Potency is on record?
Its Potency is inconclusive: 44.7 µM [inhibitor, partial curve, poor fit].

Which Potency does the source give for `CCOc1ccc(-c2cnc(-c3cnc(CC)nc3)[nH]2)cc1OCC` here?
Its Potency is inconclusive: 39.8 µM [inhibitor, partial curve, poor fit].

For `COCC1CN(C2CCC2)CC12CCN(C(=O)c1ccc(OC)cc1OC)CC2` (stereo unspecified), which “activity change, negative = cytotoxicity” value is on record?
Its value is inactive: -25.4%.

For `COc1ccc(C2(C(=O)N3CCCC(c4nc(-c5ccccc5)no4)CCNC(=O)CC3)CC2)cc1` (stereo unspecified), which Potency is on record?
Its Potency is inconclusive: 50.1 µM [inhibitor, partial curve, poor fit].

With `O=C(NCc1cccc(Cl)c1)c1cc2c(s1)CCN(C(=O)c1ccccc1)C2` as the compound, how does the Potency read?
The Potency was inconclusive: 44.7 µM [inhibitor, partial curve].

With `COc1cccc(CN2Cc3cc(NC(=O)c4ccccc4)ccc3OC(C)C2=O)c1OC` (stereo unspecified) as the compound, how does the Potency read?
The Potency was inconclusive: 50.1 µM [inhibitor, partial curve, poor fit].

With `CCc1ccc(C(=O)N2CCC(N3C(=O)N(Cc4cccnc4)CC34CCOC4)CC2)cc1` (stereo unspecified) as the compound, how does the Potency read?
Its Potency is inconclusive: 70.8 µM [inhibitor, partial curve, poor fit].
